Reference: paper PMC4336329 (PLoS ONE, 2015)
Screen size: about 310,000 compounds; about 2,200 (0.71%) showed an effect of 50% or more. The effect is printed as a negative number. This is one part of the list.

Target: human ether-à-go-go-related gene (hERG) potassium channel (human, UniProt Q12809)
Assay: primary screen, population patch clamp on CHO cells stably expressing hERG

human ether-à-go-go-related gene (hERG) potassium channel, sequence (Q12809 whole entry, looked up): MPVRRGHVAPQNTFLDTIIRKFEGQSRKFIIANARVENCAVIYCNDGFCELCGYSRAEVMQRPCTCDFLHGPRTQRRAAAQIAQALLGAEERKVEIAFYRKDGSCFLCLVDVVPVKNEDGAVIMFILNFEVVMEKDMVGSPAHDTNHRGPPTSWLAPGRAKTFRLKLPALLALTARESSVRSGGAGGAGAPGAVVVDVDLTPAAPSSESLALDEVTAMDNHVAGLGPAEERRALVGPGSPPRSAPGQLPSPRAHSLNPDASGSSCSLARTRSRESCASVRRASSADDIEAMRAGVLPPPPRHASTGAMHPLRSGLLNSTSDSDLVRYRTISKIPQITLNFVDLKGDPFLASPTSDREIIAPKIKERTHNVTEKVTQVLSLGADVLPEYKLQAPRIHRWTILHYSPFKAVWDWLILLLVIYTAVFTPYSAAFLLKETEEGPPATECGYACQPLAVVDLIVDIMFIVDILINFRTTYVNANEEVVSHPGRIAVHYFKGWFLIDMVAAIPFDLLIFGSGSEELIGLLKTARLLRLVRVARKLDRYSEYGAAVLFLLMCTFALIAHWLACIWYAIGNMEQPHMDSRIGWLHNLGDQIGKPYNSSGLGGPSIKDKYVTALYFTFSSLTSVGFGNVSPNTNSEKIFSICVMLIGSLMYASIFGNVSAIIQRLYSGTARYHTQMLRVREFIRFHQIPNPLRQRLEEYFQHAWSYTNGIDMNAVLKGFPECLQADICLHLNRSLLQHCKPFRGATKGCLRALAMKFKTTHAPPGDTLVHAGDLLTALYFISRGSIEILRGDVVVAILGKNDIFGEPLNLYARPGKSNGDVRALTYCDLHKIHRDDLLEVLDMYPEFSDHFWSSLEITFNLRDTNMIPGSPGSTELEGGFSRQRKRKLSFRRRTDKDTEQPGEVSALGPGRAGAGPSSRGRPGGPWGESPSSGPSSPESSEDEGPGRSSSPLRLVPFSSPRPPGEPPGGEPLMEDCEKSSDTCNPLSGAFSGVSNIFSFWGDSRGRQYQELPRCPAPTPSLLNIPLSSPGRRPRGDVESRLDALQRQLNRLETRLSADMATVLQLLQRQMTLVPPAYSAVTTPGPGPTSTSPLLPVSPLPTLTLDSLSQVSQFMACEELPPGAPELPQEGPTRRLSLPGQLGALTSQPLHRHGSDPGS

Compound | hERG current change (%, negative = inhibition) at 1uM
Cc1ccc(CNC(=O)CCc2c(C)[nH]c(=O)c(C#N)c2C)cc1 | 11.6%
COC(=O)c1ccc(CN2C(=O)NC3(CCC(C)CC3)C2=O)o1 (stereo not shown) | 6.48%
CC1(C)CC(N2CCCCC2)=CC(=[N+]2CCCCC2)C1.[I-] | 6.32%
CNC(=O)NC(=O)C(C)OC(=O)c1ccc(Cl)c(S(=O)(=O)Nc2ccc(F)cc2)c1 (stereo not shown) | 13.4%
CCc1ccc(C(=O)OCC(=O)N(CC)c2c(N)n(Cc3ccccc3)c(=O)[nH]c2=O)cc1 | 12%
CCN(CC)c1ccc(C(=O)N/N=C/c2ccc(N3CCOCC3)cc2)cc1 | 4.02%
Cc1cccc(C(=O)Nc2ccc(O)cc2)c1 | 14.9%
Nc1nc(SC23CC4CC(CC(C4)C2)C3)ns1 | 9.35%
O=S(=O)(Nc1ccc(Cc2ccncc2)cc1)c1ccc(Br)s1 | 4.64%
[O-][n+]1ccccc1SC/C=C/c1ccccc1 | 3.73%
COc1ccc(-n2c(SCC(=O)N(C)c3ccccc3)nc3c([nH]c4ccccc43)c2=O)cc1OC | 13.6%
CCOc1cccc(CNCc2ccc(C(=O)O)cc2)c1.Cl | 13.6%
COc1cc(Cl)c(C)cc1NC(=O)CN1CCCCCC1 | 9.06%
COCCOC(=O)c1c(C)oc2ccc(O)c(CN3CCC(C)CC3)c12 | -5.9%
CCOC(=O)C(CC(C)C)CP(=O)(O)CNC(=O)OCc1ccccc1 (stereo not shown) | 7.23%
CCN(C(=O)COC(=O)c1cc([N+](=O)[O-])ccc1N1CCCCC1)C1CCS(=O)(=O)C1 (stereo not shown) | 11.5%
Cl.ClCCN1CCN(c2ccnc3cc(Cl)ccc23)CC1 | 7.03%
CCN1CCN(C(=O)c2cc3c(s2)-c2c(C)cccc2OC3)CC1 | 8.01%
O=C(NCc1ccc2c(c1)OCO2)C1CCN(S(=O)(=O)c2ccc(F)cc2)CC1 | 12.9%
CN(CC(=O)N1CCc2ccccc21)S(=O)(=O)c1cccs1 | 0.707%
Cc1ccc(Nc2c(F)c(F)c(F)c(F)c2C(=O)O)c(C)c1 | 11.9%
COc1ccc(CCNC(=O)CSc2nnc3ccc(-c4ccncc4)nn23)cc1 | 4.18%
COc1cc(N2CCCC2)c(OC)cc1/C=C(/C#N)c1ccc(F)cc1 | 21.5%
CCOC(=O)/C=c1\s/c(=C\c2ccccc2C)c(=O)n1CC(=O)NCc1ccc2c(c1)OCO2 | 4.92%
Cc1ccccc1N/C(SCc1cccc(Br)c1)=C(/C#N)C(N)=O | 4.93%
